Measured values published in ChEMBL document CHEMBL1201862, “PubChem BioAssay data set” (2004).
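The compound was tested at five concentrations on cells cultured in 96-well plates, with a 48-hour exposure period. Here, GI50 denotes the concentration required for 50% inhibition of growth.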 Active and inactive are the calls of the source. No stated cut-off is given here; in the data, active = GI50 up to about 1.1 µM and inactive = higher.

Tested on: NCI-H322M
Assay: NCI tumour cell line growth inhibition, 48 h

Row | SMILES | GI50
1 | Cc1ccc(/C(C#N)=C/c2cccc([N+](=O)[O-])c2)cc1 | inactive: > 100 µM
2 | Oc1ccc(Cl)cc1Cc1cc(Cl)cc(Cc2cc(Cl)ccc2O)c1O | inactive: 2.81 µM
3 | Oc1ncnc2c1sc(=S)n2-c1ccccc1 | inactive: > 100 µM
4 | CC(=O)CC1(C)OC(N)=C(C#N)C1(C#N)C#N (centres undefined) | inactive: > 100 µM
5 | Nc1ncnc2c(C3OC(CO)C(O)C3O)scc12 (centres undefined) | active: 0.0678 µM
6 | CN(C)c1ccc(/C=C/c2ccnc3ccc4ccccc4c23)cc1 | inactive: 26.7 µM
7 | CCOC(=O)C(C)c1nc2c(Cl)c3ncccc3cc2[nH]c1=O (centres undefined) | inactive: 88.5 µM
8 | Nc1nc(N)c2ncn(-c3ccc(Br)cc3)c2n1 | inactive: 77.6 µM
9 | Cc1nc2ccc(C(F)(F)F)cc2nc1Nc1ccc(Cl)c(Cl)c1 | inactive: 12.7 µM
10 | CC(=O)OC1COC(n2c(=S)n(-c3ccc(C)cc3)c(=O)c3ccccc32)C(OC(C)=O)C1OC(C)=O (centres undefined) | inactive: > 100 µM
11 | O=c1[nH]c(C2CCCCC2)nc2cc(Cl)ccc12 | inactive: > 100 µM
12 | CN1C2CCC1CC(CCNC(c1ccccc1)c1ccccc1)C2 (centres undefined) | inactive: 36.7 µM
13 | CCC[C@H]1O[C@@H]2CC(=O)O[C@@H]2C2=C1C(=O)C=CC2=O | inactive: > 59.7 µM
14 | C#CC1(O)C(COP(=O)(O)OC(COCCCCCCCCCCCCCCCCCC)COP(=O)(O)OCC2OC(n3cc(C)c(=O)[nH]c3=O)CC2N=[N+]=[N-])OC(n2ccc(N)nc2=O)C1O (centres undefined) | active: 1.04 µM
15 | COc1ccc(C2OC(c3ccncc3)=NN2C)cc1OC (centres undefined) | inactive: > 100 µM
16 | N#Cc1c2c(c(N=P(c3ccccc3)(c3ccccc3)c3ccccc3)n3c1nc1ccccc13)CCCC2 | inactive: 29.7 µM
17 | Nc1ncnc2c1cnn2COCC(O)CO (centres undefined) | inactive: > 100 µM
18 | CC(C)C1=C(Cc2ccccc2)C(=O)O/C1=C\c1cc(Cl)c(O)c(Cl)c1 | inactive: 18 µM
19 | CCCCCCCC1(N=[N+]=[N-])C(=O)c2ccccc2N(C)C1=O (centres undefined) | inactive: > 100 µM
20 | CCOC(=O)CC[C@H](N)C(=O)N[C@H](Cc1ccc(N(CCCl)CCCl)cc1)C(=O)OCC | inactive: 18.5 µM
21 | Nc1ccc(S(=O)(=O)Nc2nc3ccccc3nc2N2CCCCCC2)cc1 | inactive: 34.8 µM
22 | CCCCCCNCCCNc1c2cc(OC)ccc2nc2cccc([N+](=O)[O-])c12 | active: 0.0325 µM
23 | O=S(=O)(/C=C/c1ccc(F)cc1)Cc1ccc(CS(=O)(=O)/C=C/c2ccc(F)cc2)cc1 | inactive: > 100 µM
24 | COc1cc2c3c(c1OC)C1(C=CC(=O)C=C1)CC3NCC2 (centres undefined) | inactive: > 100 µM

Row | SMILES | GI50
25 | O=C1OC(CCCN2CCCCC2)(c2ccccc2)CC12CCCC2 (centres undefined) | inactive: > 68.9 µM
26 | NC(=O)c1cnc2sc3ccccc3n2c1=O | inactive: > 100 µM
27 | O=[N+]([O-])c1cc([As](Br)c2ccc(O)c([N+](=O)[O-])c2)ccc1O | inactive: 1.74 µM
28 | COC(=O)c1cccc2cccc(C(=O)Nc3ccc(Cl)cc3)c12 | inactive: > 100 µM
29 | O=C1c2cccc3cc([N+](=O)[O-])cc(c23)C(=O)N1CCCN1CCN(CCCN2C(=O)c3cccc4cc([N+](=O)[O-])cc(c34)C2=O)CC1 | active: 0.126 µM
30 | N#Cc1c(C#N)c(SSc2c(C#N)c(C#N)c(N)n2-c2cccc3ccccc23)n(-c2cccc3ccccc23)c1N | inactive: > 41.3 µM
31 | CCOC(=O)c1c(N2CCCC2)[nH]c(=O)c(C(c2cccs2)c2c(O)c(C(=O)OCC)c(N3CCCC3)[nH]c2=O)c1O | inactive: > 100 µM
32 | CCOC(=O)/C=C(\C(=O)OCC)n1cc(C)c(=O)n(Cc2cn(COCCOC(C)=O)nn2)c1=O | inactive: 44.2 µM
33 | O=C(NC(C(F)(F)F)(C(F)(F)F)P(=O)(Cc1ccccc1)Cc1ccccc1)C(C(F)(F)F)C(F)(F)F | inactive: 31 µM
34 | CC(C)(C)OC(=O)c1ccc(NCc2cc(O)ccc2O)cc1 | inactive: 15 µM
35 | Cc1cc(C)c2cc(N)c(Cl)nc2n1 | inactive: > 100 µM
36 | O=C(/C(=N/Nc1cn[nH]c(=O)c1Cl)c1ccccc1)c1ccccc1 | inactive: 38.3 µM
37 | c1ccc(-c2nnc(-c3ccccn3)c3c2C[C@@H]2C[C@@H]4Cc5c(-c6ccccn6)nnc(-c6ccccn6)c5[C@@H]4[C@H]32)nc1 | inactive: 59 µM
38 | COc1ccc(C=O)c(NC(=O)C(C)C)c1 | inactive: 97.5 µM
39 | O=c1[nH]nc(-c2ccccc2)n1-n1cccc1 | inactive: > 100 µM
40 | O/N=C/c1ncccc1C1OCCO1 | inactive: > 100 µM
41 | CC(C)(C)OC(=O)[C@@H]1CCC(=O)N1C1(c2ccccc2)c2ccccc2-c2ccccc21 | inactive: 49 µM
42 | CC(=O)N(C(C)=O)C1=C2c3ccccc3N(S(=O)(=O)c3ccccc3)C2n2c(=O)n(-c3ccccc3)c(=O)n2C1 (centres undefined) | inactive: 39.5 µM
43 | O=C(NCC(O)COc1ccccc1)c1ccccc1O (centres undefined) | inactive: > 100 µM
44 | NCCCCc1cc(O)c2c(c1O)C(=O)c1ccccc1C2=O | inactive: 6.12 µM
45 | CC(CCN)(CCN)[N+](=O)[O-] | inactive: > 100 µM
46 | O=C(Cc1cc(=O)oc2cc(O)ccc12)N/N=C/c1ccc(N(CCCl)CCCl)cc1 | inactive: 18.3 µM
47 | O=C1C2=C(CCC2)Nc2cccc3ncn1c23 | inactive: > 100 µM
48 | CN1CCN(C(=S)N(C)C(=O)c2ccc(Cl)cc2)CC1 | inactive: > 100 µM

Row | SMILES | GI50
49 | CC(=O)c1[nH]c(NCc2ccccc2)c(C(=S)Nc2ccccc2)c1N | inactive: 30.7 µM
50 | CCOC(=O)C1S/C(=N\c2ccc(Cl)cc2Cl)N=C1C (centres undefined) | inactive: > 100 µM
51 | NC(=O)CC1(O)C=CC(=O)C=C1 | inactive: > 100 µM
52 | CCOC(=O)C(=Cc1cc(OC)ccc1OC)C(=O)OCC | inactive: 14.9 µM
53 | CC1=CCC23C(C1)OC(Br)(C=CC2(C)O)C3(C)C (centres undefined) | inactive: > 100 µM
54 | COC(=O)C(C(=O)C(=O)Nc1c(C)cccc1C(C)(C)C)c1nc2ccc(Cl)cc2nc1O (centres undefined) | inactive: > 100 µM
55 | COc1cc(OC)c(OC)cc1/C=C\c1ccnc2ccccc12 | active: 0.608 µM
56 | CCCCCCCCCCCCCCCC(=O)OCCOCCOCCOCc1ccccc1 | inactive: > 100 µM
57 | CCOc1cc(/C=C/C=C/C=C/c2ccc(N(C)C)cc2)[s+]c2ccccc12 | inactive: 34.1 µM
58 | CN(C)CCNC(=O)c1cccc2c(NC(CS)C(=O)O)c3ccccc3[n+](C)c12 (centres undefined) | inactive: 58.3 µM
59 | O=S1(=O)C[C@H](NCc2ccccc2)[C@H](NCc2ccccc2)C1 | inactive: > 100 µM
60 | CN1C(=S)C(c2ccccc2)Sc2ccccc21 (centres undefined) | inactive: > 100 µM
61 | Cc1cc2c(cc1C)[n+]([O-])c(C(=O)N1CCN(c3ccc([N+](=O)[O-])cc3)CC1)c(C)[n+]2[O-] | inactive: 67.3 µM
62 | O=c1[nH]c2cccccc-2c1-c1nc2ccccc2[nH]1 | inactive: 28.6 µM
63 | CCCCCC(/C=C/[C@@H]1[C@@H](C(O)CCCCCC(=O)OC)C(=O)C[C@H]1O[Si](C)(C)C(C)(C)C)OCOCCOC (some centres undefined) | inactive: 19.6 µM
64 | Cc1ccc(NC(=O)C(=O)CC(=O)c2c(C)[n+]([O-])c3ccccc3[n+]2[O-])cc1C | inactive: > 100 µM
65 | O=C(CCCl)NN=C1NCCCCN1 | inactive: > 100 µM
66 | OCC#CCNCl | inactive: > 100 µM
67 | CCN1CCC(CNC(=O)c2ccc(N)cc2)N1CC (centres undefined) | inactive: > 100 µM
68 | NC(=O)N/N=C(\Cc1nc2ccc(C(=O)c3ccccc3)cc2nc1O)C(=O)Nc1ccc(Br)cc1 | inactive: > 100 µM
69 | O=C1OC(c2ccc([N+](=O)[O-])cc2)=N/C1=C\c1ccc(O)cc1 | inactive: > 100 µM
70 | CCOC(=O)c1ccc(C(=O)/C(C#N)=C2\CCCN2C)[nH]1 | inactive: > 100 µM
71 | CC(C)C(C(=O)O)N1C(=O)c2ccccc2C1=O (centres undefined) | inactive: > 100 µM
72 | COc1ccc(NC(=O)CCc2cc(-c3ccc(O)c(OC)c3)nc(NC#N)n2)cc1 | inactive: > 100 µM

Row | SMILES | GI50
73 | CC(=O)OCC1OC(Sc2nc(-c3ccccc3)c(C#N)c(=O)n2C2OC(COC(C)=O)C(OC(C)=O)C(OC(C)=O)C2OC(C)=O)C(OC(C)=O)C(OC(C)=O)C1OC(C)=O (centres undefined) | inactive: > 100 µM
74 | CN(C)CCNCc1ccc2c(-c3ccccc3)nc3cc(Cl)c(Cl)cc3n12 | inactive: 8.55 µM
75 | CCCNC(=O)Cn1c2c(c3ccccc31)CCCC2 | inactive: 57.4 µM
76 | CSc1c(C(=O)Nc2ccc(C)cc2)c(N)n(N)c(=O)c1C#N | inactive: > 100 µM
77 | CN(C)c1ccc(C2SCC(=O)N2c2ccc(Oc3ccc(Cl)cc3)c(Cl)c2)cc1 (centres undefined) | inactive: 25.5 µM
78 | Cc1cnc2c(c1)C(=O)N(c1ccc([N+](=O)[O-])cc1)S2(=O)=O | inactive: > 100 µM
79 | COc1cc(/C=N/N=C(\N)NO)cc(Cl)c1O | inactive: 71.3 µM
80 | O=C1C(Br)=CC2(C=C1Br)CCNC1=C2C2=NCCc3c[nH]c(c32)C1=O | active: 1.11 µM
81 | Cc1ccc(C(=O)/C=C/c2cccc([N+](=O)[O-])c2)cc1 | inactive: > 100 µM
82 | Cc1cn2c(=O)c3ncn(C4OC(CO)C(O)C4O)c3n(C)c2n1 (centres undefined) | inactive: > 100 µM
83 | Cc1cc(C)nc(NC(P(=O)(O)O)P(=O)(O)O)n1 | inactive: > 100 µM
84 | CSC[C@H](NC(=O)COc1cccc2cnccc12)C(=O)NC(Cc1ccccc1)C(O)C(=O)N1CSC[C@H]1C(=O)NC(C)(C)C (some centres undefined) | inactive: 75.3 µM
85 | CC1=CC[C@@H](C(C)(C)O)C[C@@H]1O | inactive: > 5000 µM
86 | CC(=O)OC1C=CC2CCN3C(=O)c4cc5c(cc4[C@H]1C23)OCO5 (some centres undefined) | inactive: > 100 µM
87 | CC(C)[Si](OCC1CC(C#N)OC(C)(C)O1)(C(C)C)C(C)C (centres undefined) | inactive: 23.5 µM
88 | O=C(CBr)NCCc1c[nH]c2ccccc12 | inactive: 2.74 µM
89 | C#CCOCn1cnc2c(S)ncnc21 | inactive: > 100 µM
90 | Cc1cc(NCc2ccccc2)c2ccccc2[n+]1CCCCCCCCCC[n+]1c(C)cc(NCc2ccccc2)c2ccccc21.[O-][Cl+3]([O-])([O-])[O-].[O-][Cl+3]([O-])([O-])[O-] | active: 0.805 µM
91 | Nc1nc(O)c2ncn(C3C=CC(CO)O3)c2n1 (centres undefined) | inactive: > 100 µM
92 | Cc1ccc2[nH]c3c(C)c4cc[n+](C)cc4c(C)c3c2c1 | inactive: 1.3 µM
93 | COc1ccc2[nH]c3c(C)c4c(c(C)c3c2c1)CN(C)C=C4 | inactive: 1.38 µM
94 | Cc1c(O)c(=O)ccn1CCN | inactive: 84.7 µM
